# Source: the supplement of paper PMC5499739
# The full ranking holds about 16,000 sequences; the median of “Z-score” is about -0.37, and the highest 2% start at about 3.1. Some of the results follow.
# Test system: RBM10 RRM1-ZnF-RRM2 (GST-tagged construct)
# Experiment: RNAcompete 7-mer binding Z-score; higher = stronger binding preference
# How it was run: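 GST-tagged RBM10 constructs (20 pmol) were mixed with a designed pool of 241 399 RNAs up to 41 nt (1.5 nmol), transcribed from microarray-derived DNA templates. Mixing was in 1 ml Hepes pH 7.8 buffer with KCl, NaCl, glycerol, DTT, BSA and glutathione Sepharose beads. Binding ran 30 min at 4°C, followed by four 2-min washes at 4°C, and bound RNA was identified by microarray hybridisation. Each heptamer motif received a one-sided Z-score for enrichment across probes containing it.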
row,Sequence,RNAcompete 7-mer binding Z-score
1,UUACAUU,-0.686
2,CUUAGUC,-0.712
3,GGUUCAU,0.239
4,CCGGGCU,-0.337
5,GGCCAAC,-0.0962
6,UUUGCUC,-0.916
7,CAAGGGU,2.85
8,ACGAUGG,1.82
9,CCCUCUA,-0.795
10,AUCACAG,-0.103
11,AUAUACU,-0.439
12,AUCUUGU,-0.803
13,AUUAAAA,-0.442
14,GUAGCAU,-0.173
15,ACGCUUC,-0.785
16,CGCAGUG,-0.027
17,AUUCACG,-0.435
18,CAAGGUA,1.94
19,AACUAGA,-0.573
20,GGUCGAU,0.261
21,CAAGAUU,-0.53
22,GGUCACA,0.417
23,GCUCUGG,-0.14

row,Sequence,RNAcompete 7-mer binding Z-score
1,UAUGGAC,1.46
2,CCGUUGC,-0.675
3,AAAGUCG,0.00216
4,AGCCGUC,-0.497
5,AAUACAC,-0.395
6,UAUCGGC,-0.46
7,UCCCCUU,-0.737
8,GUUAGAU,0.228
9,CUUACGU,-0.905
10,GCCUUGA,-0.653
11,UCAAAAG,-0.482
12,CAAAUAC,-0.449
13,UUCGUUG,-0.304
14,AGAAUUA,-0.158
15,CAGUCGC,-0.246
16,CCAUGUA,-0.355
17,CCCCUGC,-0.73
18,CUGCGCC,-0.876
19,AAUAAAC,-0.457
20,CUGGUGC,-0.205
21,UCAGGAU,0.21
22,AAAACGC,-0.235
23,AUCGCCG,-0.672

row,Sequence,RNAcompete 7-mer binding Z-score
1,UUAUGGC,-0.315
2,AUAACAG,0.188
3,CACCGGC,-0.114
4,ACAUACG,-0.0306
5,AUAAAUU,-0.522
6,CUAGGAU,0.323
7,AAGUGCC,-0.402
8,UUGUGAU,-0.457
9,UUGAAUG,-0.0743
10,GCAUUGC,-0.402
11,CACCAAA,-0.788
12,GAUCUAC,-0.766
13,CUUUCUC,-0.868
14,GCCACCG,-0.49
15,UCCUACA,-0.77
16,UCUUAUC,-0.752
17,UCAGAAC,-0.391
18,CACAAGG,0.742
19,UGUCAUA,-0.541
20,UACAUCC,-0.672
21,UCCCAAU,-0.77
22,UCAGAAA,-0.0415
23,GAGCUCU,-0.712

row,Sequence,RNAcompete 7-mer binding Z-score
1,UGCCAGU,-0.347
2,UCAUACA,-0.464
3,AACCUAU,-0.843
4,GCACCCC,-0.358
5,AGGCAGG,1.77
6,GGCAAGU,0.833
7,UGGCGAC,0.935
8,CUUGCAA,-0.814
9,UACUGUA,-0.486
10,CAGGACC,0.0896
11,CCCAUGU,-0.77
12,AGACGGU,0.476
13,CUUAUUA,-0.715
14,UUCGCUC,-0.69
15,ACCAUUU,-0.97
16,GGUAUAA,1.16
17,GGGCAGC,1.7
18,GUCGGCU,-0.0925
19,AUCGUUC,-0.61
20,UGCCUUA,-0.905
21,GGUUCCU,-0.289
22,ACGCCUG,-0.832
23,GGGGCCU,0.523

row,Sequence,RNAcompete 7-mer binding Z-score
1,GGAGAAG,3.03
2,CUUGCCG,-1.03
3,UCACUUC,-0.901
4,GUUCACU,-0.617
5,AGGUGAG,2.9
6,GAUUUCU,-0.73
7,CUCGCAA,-0.825
8,AUUUUAU,-0.704
9,UAGAAUC,-0.446
10,CCGUGGU,0.228
11,GAAUUUG,0.024
12,GAGAGGG,2.75
13,AUUACUG,-0.493
14,ACAAUGU,-0.0889
15,GUAGAAU,0.53
16,GAUUUCA,-0.526
17,CGAUAUG,0.0167
18,CACCUUU,-0.963
19,AUCACCA,-0.559
20,AGAGGAG,1.7
21,CAGAAUA,-0.296
22,GUUAAUU,-0.337
23,GUAUUUA,-0.267

row,Sequence,RNAcompete 7-mer binding Z-score
1,CGUUAGA,-0.293
2,UCCGUGC,-0.759
3,GCCAAAA,-0.417
4,AAUAUUC,-0.453
5,CAGCCGG,-0.264
6,CUCAGGA,-0.22
7,GUCCGUU,-0.559
8,AGCCGUU,-0.785
9,AAUUGAC,-0.103
10,GUGUCCU,-0.577
11,CGAUAUC,-0.5
12,CUCGAGA,-0.515
13,ACGGUCU,-0.726
14,UACGGUG,1.27
15,GCGUCAG,0.0604
16,GACGUAA,0.246
17,UCUUAGU,-0.537
18,GUGGAAU,2.34
19,AAUAGGC,0.924
20,GCACGGG,2.3
21,GGGACUC,0.825
22,CGUUCUG,-0.701
23,CUAAGAC,-0.602

row,Sequence,RNAcompete 7-mer binding Z-score
1,CUUUAAC,-0.89
2,GCGAGAG,1.25
3,UACUGAG,0.0641
4,AACCUGA,-0.704
5,GUCAGGU,1.01
6,AUACCAA,-0.202
7,CACUCGU,-0.683
8,UUUCACU,-0.704
9,GAACGUC,-0.566
10,GUAGAAG,2.33
11,AUAAAAG,0.0277
12,GCCUGGA,-0.541
13,AACCACG,-0.344
14,GCCUAAG,-0.526
15,CGCAAGA,-0.377
16,AAGCCUG,-0.752
17,UGCGAAA,-0.078
18,CGCACGG,-0.0124
19,GCGAACA,0.181
20,CAGCGGG,2.5
21,CUAACGG,0.177
22,CUUGUGU,-0.792
23,CCGUAGG,0.891

row,Sequence,RNAcompete 7-mer binding Z-score
1,CAUCGUC,-0.719
2,CGAAAAA,-0.326
3,CUCUAAG,-0.537
4,CAGGCUA,0.406
5,AAGGCUA,0.851
6,GAGCACA,-0.0161
7,CGGCAAU,0.184
8,UGCAUCC,-0.621
9,UGUCGAU,-0.406
10,UGGGUUA,2.83
11,UACUCAC,-0.653
12,UCACAUG,-0.377
13,AACACUA,-0.402
14,AGAUAUG,0.891
15,GCGGGAU,2.38
16,AAAACCU,-0.562
17,UAGUCCC,-0.653
18,UCCUAUU,-0.901
19,AUUUUGA,-0.785
20,UUAGCGU,-0.541
21,CUUUUAG,-0.624
22,UCAUAGU,-0.249
23,CCUCCGA,-0.836
